Results on one compound are retold here after PubChem BioAssay (NCI).

One test has as its system RPMI-8226 leukemia. Put plainly: NCI-60 one-dose screen, 48 h (100 = growth as untreated, 0 = no growth, -100 = all killed). The conditions noted are these: 25 µM.
Another test concerns OVCAR-8 ovarian. Described as above. The conditions noted are these: 0.25 µM.

Some structures have more than one record in an assay (separate samples or runs), and their calls can disagree.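 Compound tested at a single concentration for 48 hours in 96-well plates; a percent growth value below 10 was scored as active.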 Not every entry of the source has a single result; some have several. The list is limited to them. There may be further records. For some assays here: These are repeated runs of one drug, at its own concentration, as given; each value is one run. Signs of the kind (2×) give the number of equal values in this list. Entries with a single value are a further part of the results. Calls of active or inactive are those of the source.

As to `COc1cccc2c1C(=O)c1c(O)c3c(c(O)c1C2=O)C[C@@](O)(C(=O)CO)C[C@@H]3OC1CC(N)C(O)C(C)O1` (stereo partly specified), the growth result in the test on RPMI-8226 leukemia (runs of 1992) is “active: -16.7, -17.7, -23.4, -24.5, -22.3, -25, 5.1, -7.47, -21.5, -11.2, -12.5, -21, -45.9, -17.5 (2×), -10.8, -12.9 (3×), -21.6, -29.3 (2×), -31.4, 1.02, -8.57, -20.2, 3.09, -17.2, -25.9, 4.18, -5.16, -26.6, 7.83, -12.4 (2×), -52.5, -5.04, -8.72, 7.3, -19, 3.89, 5.11, 7.24, -24, -4.06, 9.47, -8.27, -18.3, -35.3, 6.39, -12, -1.89, -13.3, 4.01, -38.4, -28.3, -0.352, -14.5, -14.4, -25.8, -7.67, -25.5, -22.8, -18.1, -17.9, -29.7, 3.06, -16.6, 8.25, -11.6, -0.408, -37.1, -19.3, -23.8, -28.6, -49, -33.1, 0.652, -2.5, -31.2, -21.3, -10.2, -22.9, -10.5, -10.9, -44.9, -30.6, -1.66, -10.4, -23.7, 7.76, -56.2, -25.1, -15.9, -30.1, -20.5, -6.33, -22.7, -40.3, -18.7 (2×), -22.1, -8.51, -29.2, -18.5, -72.2, -28.7 (2×), -33.8, 2.02, -15.2, -2.19, 1.62, -33, -6.03, 1.82, -22.5, -17.4% and inactive: 29.4%, 15.8%”; in the test on RPMI-8226 leukemia (runs of 1993), “active: -18.1, -4.44, 1.84, -39.5, -30.8, -12 (2×), -21.6, 4.31, -0.754, -35.1, -41, -19.4, -21.4, -25.9, 7.27, -24.3, -39.4, -15.8, -26.5, -41.1, -17.3, -44.1, -28.9, -41.6, -24.2, -36, -38.9, -49.5, -14.3, -44.5, -23.6, 8.78, 0.0457% and inactive: 15.2, 25.4, 13.4, 17.7, 36.7, 17, 16.8, 27.7, 19.9%”; in the test on RPMI-8226 leukemia (runs of 1994), “active: -9.91, -35.7, -32.4, -38.7, -5.39, -12.6, -10.1, -26, 1.83, -50.8, -29.2, 8.02, -30.7, 0.155, -57.5, -26.5, -23.2, -45.3, -7.43, -15.3, -13.1, -20.4, 1.29, -12, -16.7, 7.3, -2.08, -26.3% and inactive: 103%, 29.8%”; in the test with RPMI-8226 leukemia (runs of 1995), “active: -21.4, -32.7, -13.1, -29, -38.1, -8.77, -24.7, -36.6, 0.861, -14.3, -33, -31.2, -39.9, -24.2, -30.2, 1.62, -37.3, 5.94, -9.67, -18.6, -48.1, -26.4, -29.2, 7.84, -26.7, -10.8, -49.3, -36, -23.6, -17, -48.2, -28.1, -51.2% and inactive: 44.3%, 30.4%”; with RPMI-8226 leukemia (runs of 1996) it was “active: -49.4, -2.37, -38, -2.4, -29.9, -25.4, -17.7, -20.2, -31.3 (2×), -17.4, -43.8, -41.7, -31.6, -24.5, -67.6, -37.8, -50.1, -14.8, -28.1, -27.2, -44.7, -19.7, -4.58, -11.7, -10.6, -32.3, -23, -40.4, -41.8, -9.83, -35.3, -29.2, -20.3, -19.3, -32.6, -25.7, 4.23, -47.6, -44.8, -21.6, -6.03% and inactive: 17.1, 113, 25.6, 26.2, 13.9, 10.4%”; in the test with RPMI-8226 leukemia (runs of 1997), “active: -6.61, -10.2, -31.6, -21.1, -25, -41.4, -10.3, 8.16, -20.8, -3.96, -3.31, -23, 9.38, -31.4, -28, -28.4, -54.7, -22.5, -24, 5.45, -16.1, -16.4, -4.5, -22.8, -22.1, -32.6, -11.2, -6.5, 4, -7.39, -12.3, -36.2, -8.29, -24.4, -26.4, -42% and inactive: 23, 41, 96.8, 58.7, 16.1%”. In addition, the growth entry in the test on RPMI-8226 leukemia (runs of 1998) was “inactive: 43.2%, 91.5%, 10.2% and active: -5.6, -13.5, 8.02, -74.8, -11.6, -12.5, -49.4, -62.2, -29.4, -48.5, -19, -40.4%”; with RPMI-8226 leukemia (runs of 1999), “active: -1.08, -29.6, -29.1, -64.6, 7.42, 0.195, -80.5, -34.2, 3.92, 4.13, -59.6, -20.5, 5.86, 6.44%”; in the test on RPMI-8226 leukemia (runs of 2000) it was “active: -75%, 8.67%, -28.6%”; with OVCAR-8 ovarian (runs of 2006), active: -1.27%; in the test with OVCAR-8 ovarian (runs of 2007), “inactive: 40.5, 52.6, 33.7, 37.4, 43.1, 48.4, 44.6, 44.9, 42.9 (3×), 44.8, 41, 45.9, 30.5, 39.4 (2×), 42, 33.6, 41.1, 33.8, 37.5 (2×), 48.2, 49.6, 37.8, 34.7, 47, 31.5, 47.5, 46.4, 50.6, 51.5, 54.3, 42.8, 39.1, 42.4, 52.9%”.
